# Reference: the supplement of paper PMC8728848
# Some of the results follow.
# Columns and labels:
# Experiment in all cases: glycan array binding signal (z-score within array); higher = stronger binding
# Details in all cases: glycan notation: IUPAC condensed, linker removed
# [1] = target: Neu5Ac(a2-3)Gal(b1-3)GlcNAc6S
# Method in brief: (§1)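 Negative Z-scores can be read as non-binding. The Z-score is calculated within each array and then averaged across arrays of one protein sequence at different concentrations or buffers and across linkers. Arrays, 3228 in all, were curated from the Consortium for Functional Glycomics database and kept only where the protein sequence was available.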
# [2] = target: Neu5Ac(a2-3)Gal(b1-3)[Fuc(a1-4)]GlcNAc
# Method in brief: as §1
# [3] = target: Neu5Ac(a2-3)Gal(b1-3)[Fuc(a1-4)]GlcNAc(b1-3)Gal(b1-3)[Fuc(a1-4)]GlcNAc
# Method in brief: as §1
# [4] = target: Neu5Ac(a2-3)Gal(b1-3)[Fuc(a1-4)]GlcNAc(b1-3)Gal(b1-4)[Fuc(a1-3)]GlcNAc
# Method in brief: as §1
# [5] = target: Neu5Ac(a2-3)Gal(b1-3)[GlcNAc(b1-6)]GalNAc
# Method in brief: as §1
# [6] = target: Neu5Ac(a2-3)Gal(b1-3)[Neu5Ac(a2-6)]GalNAc
# Method in brief: as §1
# [7] = target: Neu5Ac(a2-3)Gal(b1-3)[Neu5Ac(a2-6)]GlcNAc(b1-3)[Fuc(a1-3)[Gal(b1-4)]GlcNAc(b1-6)]Gal(b1-4)Glc
# Method in brief: as §1
# [8] = target: Neu5Ac(a2-3)Gal(b1-3)]Neu5Ac(a2-3)Gal(b1-4)]GlcNAc
# Method in brief: as §1
# Neu5Ac(a2-3)Gal(b1-4)Glc = target: Neu5Ac(a2-3)Gal(b1-4)Glc
# Method in brief: as §1
# [9] = target: Neu5Ac(a2-3)Gal(b1-4)GlcNAc
# Method in brief: as §1
# [10] = target: Neu5Ac(a2-3)Gal(b1-4)GlcNAc(b1-2)Man
# Method in brief: as §1
# [11] = target: Neu5Ac(a2-3)Gal(b1-4)GlcNAc(b1-2)Man(a1-3)[GlcNAc(b1-4)][Neu5Ac(a2-3)Gal(b1-4)GlcNAc(b1-2)Man(a1-6)]Man(b1-4)GlcNAc(b1-4)GlcNAc
# Method in brief: as §1
# [12] = target: Neu5Ac(a2-3)Gal(b1-4)GlcNAc(b1-2)Man(a1-3)[Neu5Ac(a2-3)Gal(b1-4)GlcNAc(b1-2)Man(a1-6)]Man(b1-4)GlcNAc(b1-4)GlcNAc
# Method in brief: as §1
# [13] = target: Neu5Ac(a2-3)Gal(b1-4)GlcNAc(b1-2)Man(a1-3)[Neu5Ac(a2-3)Gal(b1-4)GlcNAc(b1-2)Man(a1-6)]Man(b1-4)GlcNAc(b1-4)[Fuc(a1-6)]GlcNAc
# Method in brief: as §1
# [14] = target: Neu5Ac(a2-3)Gal(b1-4)GlcNAc(b1-2)Man(a1-3)[Neu5Ac(a2-6)Gal(b1-4)GlcNAc(b1-2)Man(a1-6)]Man(b1-4)GlcNAc(b1-4)GlcNAc
# Method in brief: as §1
# [15] = target: Neu5Ac(a2-3)Gal(b1-4)GlcNAc(b1-2)[Neu5Ac(a2-3)Gal(b1-4)GlcNAc(b1-4)]Man(a1-3)[GlcNAc(b1-4)][Neu5Ac(a2-3)Gal(b1-4)GlcNAc(b1-2)[Neu5Ac(a2-3)Gal(b1-4)GlcNAc(b1-6)]Man(a1-6)]Man(b1-4)GlcNAc(b1-4)GlcNAc
# Method in brief: as §1
# [16] = target: Neu5Ac(a2-3)Gal(b1-4)GlcNAc(b1-2)[Neu5Ac(a2-3)Gal(b1-4)GlcNAc(b1-4)]Man(a1-3)[GlcNAc(b1-4)][Neu5Ac(a2-3)Gal(b1-4)GlcNAc(b1-4)Man(a1-6)]Man(b1-4)GlcNAc(b1-4)GlcNAc
# Method in brief: as §1
# [17] = target: Neu5Ac(a2-3)Gal(b1-4)GlcNAc(b1-2)[Neu5Ac(a2-3)Gal(b1-4)GlcNAc(b1-6)]Man(a1-6)[Neu5Ac(a2-3)Gal(b1-4)GlcNAc(b1-2)Man(a1-3)][GlcNAc(b1-4)]Man(b1-4)GlcNAc(b1-4)GlcNAc
# Method in brief: as §1
# [18] = target: Neu5Ac(a2-3)Gal(b1-4)GlcNAc(b1-3)Gal
# Method in brief: as §1
# [19] = target: Neu5Ac(a2-3)Gal(b1-4)GlcNAc(b1-3)Gal(b1-3)GlcNAc
# Method in brief: as §1
# [20] = target: Neu5Ac(a2-3)Gal(b1-4)GlcNAc(b1-3)Gal(b1-4)GlcNAc
# Method in brief: as §1
# [21] = target: Neu5Ac(a2-3)Gal(b1-4)GlcNAc(b1-3)Gal(b1-4)GlcNAc(b1-2)Man(a1-3)[Neu5Ac(a2-3)Gal(b1-4)GlcNAc(b1-3)Gal(b1-4)GlcNAc(b1-2)Man(a1-6)]Man(b1-4)GlcNAc(b1-4)GlcNAc
# Method in brief: as §1
# [22] = target: Neu5Ac(a2-3)Gal(b1-4)GlcNAc(b1-3)Gal(b1-4)GlcNAc(b1-3)Gal(b1-4)GlcNAc
# Method in brief: as §1
# [23] = target: Neu5Ac(a2-3)Gal(b1-4)GlcNAc(b1-3)Gal(b1-4)GlcNAc(b1-3)Gal(b1-4)GlcNAc(b1-2)Man(a1-3)[Neu5Ac(a2-3)Gal(b1-4)GlcNAc(b1-3)Gal(b1-4)GlcNAc(b1-3)Gal(b1-4)GlcNAc(b1-2)Man(a1-6)]GalNAc
# Method in brief: as §1
# [24] = target: Neu5Ac(a2-3)Gal(b1-4)GlcNAc(b1-3)Gal(b1-4)GlcNAc(b1-3)GalNAc
# Method in brief: as §1
# [25] = target: Neu5Ac(a2-3)Gal(b1-4)GlcNAc(b1-3)Gal(b1-4)GlcNAc(b1-3)[Neu5Ac(a2-3)Gal(b1-4)GlcNAc(b1-3)Gal(b1-4)GlcNAc(b1-6)]GalNAc
# Method in brief: as §1
# [26] = target: Neu5Ac(a2-3)Gal(b1-4)GlcNAc(b1-3)Gal(b1-4)GlcNAc(b1-6)[Gal(b1-3)]GalNAc
# Method in brief: as §1
# [27] = target: Neu5Ac(a2-3)Gal(b1-4)GlcNAc(b1-3)Gal(b1-4)[Fuc(a1-3)]GlcNAc
# Method in brief: as §1
# [28] = target: Neu5Ac(a2-3)Gal(b1-4)GlcNAc(b1-3)GalNAc
# Method in brief: as §1
# [29] = target: Neu5Ac(a2-3)Gal(b1-4)GlcNAc(b1-3)[Neu5Ac(a2-3)Gal(b1-4)GlcNAc(b1-6)]GalNAc
# Method in brief: as §1
# [30] = target: Neu5Ac(a2-3)Gal(b1-4)GlcNAc(b1-6)GalNAc
# Method in brief: as §1
# [31] = target: Neu5Ac(a2-3)Gal(b1-4)GlcNAc(b1-6)[Gal(b1-3)]GalNAc
# Method in brief: as §1
# [32] = target: Neu5Ac(a2-3)Gal(b1-4)GlcNAc(b1-6)[Neu5Ac(a2-3)Gal(b1-3)]GalNAc
# Method in brief: as §1
# [33] = target: Neu5Ac(a2-3)Gal(b1-4)GlcNAc6S
# Method in brief: as §1
# [34] = target: Neu5Ac(a2-3)Gal(b1-4)[Fuc(a1-3)]GlcNAc
# Method in brief: as §1
# [35] = target: Neu5Ac(a2-3)Gal(b1-4)[Fuc(a1-3)]GlcNAc(b1-2)Man
# Method in brief: as §1
# [36] = target: Neu5Ac(a2-3)Gal(b1-4)[Fuc(a1-3)]GlcNAc(b1-3)Gal
# Method in brief: as §1
# [37] = target: Neu5Ac(a2-3)Gal(b1-4)[Fuc(a1-3)]GlcNAc(b1-3)Gal(b1-4)GlcNAc
# Method in brief: as §1
# [38] = target: Neu5Ac(a2-3)Gal(b1-4)[Fuc(a1-3)]GlcNAc(b1-3)Gal(b1-4)[Fuc(a1-3)]GlcNAc(b1-3)Gal(b1-4)[Fuc(a1-3)]GlcNAc
# Method in brief: as §1
# [39] = target: Neu5Ac(a2-3)Gal(b1-4)[Fuc(a1-3)]GlcNAc(b1-3)GalNAc
# Method in brief: as §1
# [40] = target: Neu5Ac(a2-3)Gal(b1-4)[Fuc(a1-3)]GlcNAc(b1-6)[Gal(b1-3)]GalNAc
# Method in brief: as §1
# [41] = target: Neu5Ac(a2-3)Gal(b1-4)[Fuc(a1-3)]GlcNAc(b1-6)[Neu5Ac(a2-3)Gal(b1-3)]GalNAc
# Method in brief: as §1
# [42] = target: Neu5Ac(a2-3)Gal(b1-4)[Fuc(a1-3)]GlcNAc6S
# Method in brief: as §1
# [43] = target: Neu5Ac(a2-3)Gal6S(b1-4)GlcNAc
# Method in brief: as §1
# [44] = target: Neu5Ac(a2-3)Gal6S(b1-4)[Fuc(a1-3)]GlcNAc
# Method in brief: as §1
binder,measurement,setting,value
RBMC1 (Vibrio cholerae) (protein) QQSQRVVTADNLMYLRSGFAIDAIGTTVNNLVGGPVQGTNGGVLRAPIALDQLQSVEVTSGLYNWGGYHIVAIKFTMKDGSSVLLGSTHYASNKKVETYTVPQGKRIKQINVWTGGWLVEGFQFVY,glycan array binding signal (z-score),[1],-0.097
same,glycan array binding signal (z-score),[2],-0.283
same,glycan array binding signal (z-score),[3],-0.219
same,glycan array binding signal (z-score),[4],0.07
same,glycan array binding signal (z-score),[5],-0.295
same,glycan array binding signal (z-score),[6],-0.336
same,glycan array binding signal (z-score),[7],-0.359
same,glycan array binding signal (z-score),[8],-0.105
same,glycan array binding signal (z-score),Neu5Ac(a2-3)Gal(b1-4)Glc,0.516
same,glycan array binding signal (z-score),[9],-0.305
same,glycan array binding signal (z-score),[10],-0.164
same,glycan array binding signal (z-score),[11],-0.14
same,glycan array binding signal (z-score),[12],1.51
same,glycan array binding signal (z-score),[13],3.39
same,glycan array binding signal (z-score),[14],-0.198
same,glycan array binding signal (z-score),[15],-0.332
same,glycan array binding signal (z-score),[16],-0.394
same,glycan array binding signal (z-score),[17],-0.463
same,glycan array binding signal (z-score),[18],-0.181
same,glycan array binding signal (z-score),[19],-0.363
same,glycan array binding signal (z-score),[20],-0.306
same,glycan array binding signal (z-score),[21],0.214
same,glycan array binding signal (z-score),[22],-0.32
same,glycan array binding signal (z-score),[23],0.281
same,glycan array binding signal (z-score),[24],-0.332
same,glycan array binding signal (z-score),[25],-0.249
same,glycan array binding signal (z-score),[26],0.14
same,glycan array binding signal (z-score),[27],0.075
same,glycan array binding signal (z-score),[28],-0.267
same,glycan array binding signal (z-score),[29],-0.352
same,glycan array binding signal (z-score),[30],-0.114
same,glycan array binding signal (z-score),[31],0.096
same,glycan array binding signal (z-score),[32],-0.291
same,glycan array binding signal (z-score),[33],-0.263
same,glycan array binding signal (z-score),[34],-0.385
same,glycan array binding signal (z-score),[35],-0.392
same,glycan array binding signal (z-score),[36],-0.289
same,glycan array binding signal (z-score),[37],-0.242
same,glycan array binding signal (z-score),[38],-0.373
same,glycan array binding signal (z-score),[39],-0.194
same,glycan array binding signal (z-score),[40],-0.369
same,glycan array binding signal (z-score),[41],-0.122
same,glycan array binding signal (z-score),[42],-0.031
same,glycan array binding signal (z-score),[43],-0.371
same,glycan array binding signal (z-score),[44],-0.294
